Experimental data published in the supplement of paper PMC4967469.
IC50 is the fitted dose that halves viability relative to control wells, and lower means more sensitive; a fit beyond the top or the lowest dose is shown as a bound at that dose. AUC is the area under the same curve over the 256-fold range up to the top dose, as a fraction: 1 means no effect, lower means more sensitive. For some of these results: An inferred top dose was calculated from the reported fits.

How the values were obtained:
Assay in all cases: Viability of human cancer cell lines after 72 h of drug (GDSC screen)
[1] = compound: COc1cc(Nc2c(C#N)cnc3cc(OCCCN4CCN(C)CC4)c(OC)cc23)c(Cl)cc1Cl [Bosutinib]; conditions: top dose 2 µM
Protocol: (§1)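 Human cancer cell lines in 384-well plates, medium with 10% serum, drug for 72 h over a 256-fold dose range (nine 2-fold or five 4-fold steps up to the top dose). Adherent lines were fixed and stained with the nucleic acid dye Syto60, suspension lines read with resazurin; signal relative to control wells, capped at 0 and 100%. One two-parameter sigmoid per drug and line, fitted in a mixed model over all curves with the slope shared within a line.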

[2] = compound: CO[C@@H]1[C@H](N(C)C(=O)c2ccccc2)C[C@H]2O[C@]1(C)n1c3ccccc3c3c4c(c5c6ccccc6n2c5c31)C(=O)NC4 [Midostaurin]; conditions: top dose 0.512 µM; top dose inferred
Protocol: as §1

[3] = compound: O=C(O)CNC(=O)c1c(O)c2ccccc2n(Cc2ccccc2)c1=O [IOX2]; conditions: top dose 0.1 µM; top dose inferred
Protocol: as §1

[4] = compound: Cc1ccc(C(=O)Nc2cccc(C(F)(F)F)c2)cc1Nc1nc(-c2cccnc2)nc2c1cnn2C [NVP-BHG712]; conditions: top dose 10.24 µM; top dose inferred
Protocol: as §1

[5] = compound: CO[C@@]12[C@H](COC(N)=O)C3=C(C(=O)C(C)=C(N)C3=O)N1C[C@@H]1N[C@@H]12 [Mitomycin C]; conditions: top dose 16 µM
Protocol: as §1

Cell Line	AUC [1]	IC50 [1]	AUC [2]	IC50 [2]	AUC [3]	IC50 [3]	AUC [4]	IC50 [4]	AUC [5]	IC50 [5]
NCI-H2029 (small cell lung carcinoma, adherent)	0.926	> 2000 nM	0.98	> 512 nM	0.992	> 100 nM	0.978	> 10200 nM	0.81	7410 nM
WM-115 (melanoma, adherent)	0.981	> 2000 nM	0.925	> 512 nM	0.972	> 100 nM	0.737	3610 nM	0.919	> 16000 nM
IPC-298 (melanoma, adherent)	0.768	738 nM	0.957	> 512 nM	0.986	> 100 nM	0.788	4400 nM	0.551	1370 nM
Caov-4 (ovary, adherent)	0.98	> 2000 nM	0.91	> 512 nM	0.965	> 100 nM	0.948	> 10200 nM	0.504	1030 nM
NCI-H2172 (non-small cell lung carcinoma, adherent)	0.979	> 2000 nM	0.967	> 512 nM	0.968	> 100 nM	0.901	> 10200 nM	0.402	489 nM
G-MEL (melanoma, adherent)	0.803	979 nM	0.873	484 nM	0.974	> 100 nM	0.778	4100 nM	0.236	174 nM
HuP-T3 (pancreas, adherent)	0.866	> 2000 nM	0.935	> 512 nM	0.922	> 100 nM	0.929	> 10200 nM	0.447	694 nM
KYSE-50 (oesophagus, adherent)	0.982	> 2000 nM	0.821	263 nM	0.989	> 100 nM	0.879	8930 nM	0.421	621 nM
OSC-20 (head and neck, adherent)	0.851	1990 nM	0.788	272 nM	0.977	> 100 nM	0.974	> 10200 nM	0.222	129 nM
KARPAS-620 (haematopoietic neoplasm, suspension)	0.99	> 2000 nM	0.869	363 nM	0.988	> 100 nM	0.43	424 nM	0.623	2070 nM
HH (T-cell leukaemia, suspension)	0.97	> 2000 nM	0.942	> 512 nM	0.971	> 100 nM	0.72	3350 nM	0.501	1010 nM
PANC-03-27 (pancreas, adherent)	0.978	> 2000 nM	0.763	174 nM	0.987	> 100 nM	0.901	> 10200 nM	0.243	193 nM
SW1573 (lung adenocarcinoma, adherent)	0.913	> 2000 nM	0.894	> 512 nM	0.929	> 100 nM	0.981	> 10200 nM	0.272	176 nM
NCI-H1435 (lung adenocarcinoma, semi-adherent)	0.985	> 2000 nM	0.991	> 512 nM	0.992	> 100 nM	0.989	> 10200 nM	0.307	307 nM
BHT-101 (thyroid, adherent)	0.695	450 nM	0.933	> 512 nM	0.96	> 100 nM	0.723	2810 nM	0.582	1690 nM
VMRC-MELG (melanoma, adherent)	0.989	> 2000 nM	0.987	> 512 nM	0.888	> 100 nM	0.969	> 10200 nM	0.6	1910 nM
NCI-H1437 (lung adenocarcinoma, adherent)	0.956	> 2000 nM	0.949	> 512 nM	0.971	> 100 nM	0.967	> 10200 nM	0.197	120 nM
HCC1937 (breast, adherent)	0.851	1910 nM	0.976	> 512 nM	0.98	> 100 nM	0.958	> 10200 nM	0.411	549 nM
SNU-423 (liver, adherent)	0.98	> 2000 nM	0.768	224 nM	0.981	> 100 nM	0.939	> 10200 nM	0.564	1540 nM
Hs683 (glioma, adherent)	0.975	> 2000 nM	0.756	177 nM	0.966	> 100 nM	0.916	> 10200 nM	0.328	330 nM
KS-1 (glioma, adherent)	0.931	> 2000 nM	0.702	138 nM	0.977	> 100 nM	0.875	> 10200 nM	0.291	220 nM
EN (endometrium, adherent)	0.976	> 2000 nM	0.894	> 512 nM	0.976	> 100 nM	0.898	> 10200 nM	0.683	3740 nM
EBC-1 (lung squamous cell carcinoma, adherent)	0.963	> 2000 nM	0.892	> 512 nM	0.981	> 100 nM	0.97	> 10200 nM	0.205	117 nM
G-402 (soft tissue, adherent)	0.959	> 2000 nM	0.747	212 nM	0.974	> 100 nM	0.745	4160 nM	0.212	103 nM
NCI-H810 (large cell lung carcinoma, adherent)	0.981	> 2000 nM	0.822	283 nM	0.987	> 100 nM	0.926	> 10200 nM	0.265	221 nM
